According to PubChem BioAssay AID1671194 (National Center for Advancing Translational Sciences (NCATS), 2021):
The whole screen tested about 140,000 compounds, of which about 240 (0.17%) were called active. The inconclusive results got no clear call from the source; some entries with a clear call stand among them for comparison. The call rests on the fitted dose curve; in most records, active means well fitted inhibition curve with a large enough effect; inconclusive means small, poorly fitted or top-dose-only effect; inactive means no such curve, though single readings can be large or run the other way. Where the call is inconclusive, the potency comes from a doubtful curve fit.

experiment: Primary qHTS assay for inhibitors of alpha-synuclein gene (SNCA) expression; conditions: HEK-293 SNCA-luciferase knock-in, luminescence, 24 h; activity change, negative = inhibition: at 57.2 µM (top of the series) unless noted; further: nearly all actives have a fitted effect of over 45% in size;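 on activity change, negative = inhibition: plate controls were DMSO cells for no effect and cell-free wells for full effect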
Potency means the concentration at half of the fitted maximal effect; tags describe the fitted curve by direction and shape.

Row | Compound | Potency | activity change, negative = inhibition
1 | CCN(c1cccc(C)c1)C(CNS(=O)(=O)c1ccccc1)c1ccccc1 (stereo unspecified) | inconclusive: 0.355 µM [inhibitor, full curve, poor fit] | 
2 | CCOC(=O)CCNC(=O)N1CCC(N2C(=O)C3(CCCCC3)C2c2ccncc2)CC1 (stereo unspecified) | inconclusive: 15.8 µM [inhibitor, partial curve, poor fit] | 
3 | COc1ccc(-c2noc(-c3ccccc3OCC(=O)Nc3ccc(C(C)=O)cc3)n2)cc1 | inconclusive: 31.6 µM [inhibitor, partial curve, poor fit] | 
4 | O=C(CC1CCOCC1)NCc1cccc(F)c1 | inconclusive: 7.08 µM [inhibitor, single point] | 
5 | COc1ccccc1C(=O)N1CCC2(C1)C(=NC1CCCC1)NC(=O)N2c1cccnc1 (stereo unspecified) | inconclusive: 39.8 µM [inhibitor, single point] | 
6 | CC(C)(C)C(=O)Nc1nc2c(s1)C[C@@H]1[C@](C)(CO)[C@H](O)CC[C@@]1(C)[C@@H]2CC(=O)NC1CCCC1 | inconclusive: 39.8 µM [inhibitor, single point] | 
7 | O=C1[C@H]2CN(Cc3ccc(F)cc3Cl)C[C@H]2C(=O)N1CCN1CCc2ccccc2C1 | inconclusive: 25.1 µM [inhibitor, single point] | 
8 | Oc1cccc(-c2nc3ncccn3c2Nc2cccc(C(F)(F)F)c2)c1 | inconclusive: 39.8 µM [inhibitor, single point] | 
9 | CCCc1noc(CN(C)C(/C=C/c2ccccc2)C(=O)O)n1 (stereo unspecified) |  | inactive: 7.82%
10 | CC1(COc2ccccc2)COc2ccc(C(=O)NCCOc3ccccc3)cc2N1 (stereo unspecified) | inconclusive: 25.1 µM [inhibitor, partial curve, poor fit] | 
11 | Cc1ccc(Cn2c(C3CCN(C(=O)c4ccccc4)CC3)n[nH]c2=O)cc1 | inconclusive: 15.8 µM [inhibitor, single point] | 
12 | COc1c[nH]c(CN2CCN(C)C3(CCC(=O)N(C)CC3)C2)cc1=O (stereo unspecified) | inconclusive: 3.16 µM [inhibitor, full curve, poor fit] | 
13 | O=C(C1CCCN([S+](=O)([O-])c2ccccc2)C1)N1CCC(N2CCOCC2=O)CC1 (stereo unspecified) | inconclusive: 39.8 µM [inhibitor, single point] | 
14 | c1cncc(C2=NOC3(CCN(Cc4cccc5ccccc45)CC3)C2)c1 |  | inactive: -0.65%
15 | Cc1cccc(N2CCN(c3ncnc4onc(-c5ccc(F)cc5)c34)CC2C)c1 (stereo unspecified) | inconclusive: 5.01 µM [inhibitor, partial curve, poor fit] | 
16 | CC(C)C(=O)NC[C@H]1O[C@H](Cc2cc(CN3CCCCC3)on2)CC[C@@H]1O | inconclusive: 1 µM [inhibitor, full curve, poor fit] | 
17 | CCOC(=O)c1cnn(-c2ccc(OC)cc2)c1C1CCN(C(=O)OC(C)(C)C)CC1 | inconclusive: 39.8 µM [inhibitor, single point] | 
18 | CCc1noc(-c2cn(C3CCN(C(=O)c4ccc(F)cc4)C3)nn2)n1 (stereo unspecified) | inconclusive: 31.6 µM [inhibitor, single point] | 
19 | Cc1nc(Nc2n[nH]c3c2CN(C(=O)N[C@H](CN(C)C)c2ccccc2)C3(C)C)c2sccc2n1 | active: 0.0152 µM | 
20 | COc1ccc(C(=O)N2CC(CNC(=O)N3CCCC3)C3(CCOCC3)C2)cc1 (stereo unspecified) |  | inactive: 2.61%
21 | CCc1nncn1C1CCN(S(=O)(=O)c2ccc(C)cc2C)CC1 | inconclusive: 10 µM [inhibitor, full curve, poor fit] | 

Row | Compound | Potency | activity change, negative = inhibition
22 | O=c1c2nc(OCc3ccc(F)cc3)ccc2ncn1C1CC1 |  | inactive: 39.5% [at 87.6 µM]
23 | O=C(NC1CCCN(c2cc(-c3ccc(Cl)cc3)[nH]n2)C1)c1ccoc1 (stereo unspecified) |  | inactive: 75.4%
24 | O=C1NC2(CCCN(Cc3ccc(C(F)(F)F)cc3)C2)Oc2ccccc21 (stereo unspecified) | inconclusive: 35.5 µM [inhibitor, single point] | 
25 | COc1ccc(-c2ccnc(-c3nnc(C)n3Cc3cccnc3)c2)cc1OC | inconclusive: 10 µM [inhibitor, full curve] | 
26 | CCn1c(SCc2ccccc2)nnc1-c1nonc1NC(C)=O | inconclusive: 2.82 µM [inhibitor, single point] | 
27 | Cc1ccc(-c2nc(C(=O)NCc3ccc(Cl)cc3)c3n2CCCCC3)cc1 | inconclusive: 39.8 µM [inhibitor, single point] | 
28 | Cc1ccccc1NC(=O)C1=NO[C@@H]2CN(c3ccccn3)C[C@H]12 | inconclusive: 12.6 µM [inhibitor, single point] | 
29 | CC(C)(C)n1cc(-c2cc(C(=O)N3C[C@H]4CC[C@H]3C4)c3ccccc3n2)cn1 |  | inactive: 23.4%
30 | CCc1noc(CN2CCOc3c(O)cc(-c4ccccc4C)cc3C2)n1 |  | inactive: 3.42%
31 | Cc1cccc(NC(=O)Nc2nnc(N(C)C3CCCCC3)s2)c1C | inconclusive: 7.08 µM [inhibitor, single point] | 
32 | CC(C)c1ccc(C(=O)N[C@H](C2CCNCC2)C2CC(O)C2)c(=O)n1C (stereo partly specified) | inconclusive: 4.47 µM [inhibitor, single point] | 
33 | CN(C)c1ccc(CN2CCC3(C2)C(=O)N(C)c2ccccc23)cc1 (stereo unspecified) |  | inactive: 16.4% [at 87.6 µM]
34 | Cc1cccc(CNC(=O)C2CCN(C(=O)c3ncn4c3COC(c3ccc(F)cc3)C4)CC2)c1 (stereo unspecified) |  | inactive: 31.5%
35 | O=C(O)Cn1ccc2cc(OCC3CCN(C(=O)COc4ccccc4)CC3)cnc21 |  | inactive: -13.9% [at 87.6 µM]
36 | COc1ccc(OC)c(NC2=C(c3ccccc3)C(=O)c3ccccc32)c1 | inconclusive: 0.158 µM [inhibitor, partial curve, poor fit] | 
37 | CNC(=O)[C@H]1C[C@H](Oc2ccccc2)CN1S(=O)(=O)c1cn(C)cn1 | inconclusive: 2 µM [inhibitor, full curve] | 
38 | COc1ccc(F)cc1S(=O)(=O)N1CCc2nn(CC3CC3)c(=O)n2CC1 | inconclusive: 39.8 µM [inhibitor, single point] | 
39 | CSc1ccc(-c2cccc(C(=O)NCCNC(=O)N(C)C)c2)cc1 |  | inactive: 24.4%
40 | CC(=O)NC1(C)CCN(Cc2cccc(-c3cccc4ncccc34)c2)C1 (stereo unspecified) |  | inactive: 28.9% [at 87.6 µM]
41 | Cc1ccc(C(=O)Nc2c(-c3ccccc3)nc3ccccn23)cc1C | inconclusive: 2.82 µM [inhibitor, full curve] | 
